Measured values published in PubChem BioAssay AID743279 (National Center for Advancing Translational Sciences (NCATS), 2014).
Hit rate of the full screen: of about 360,000 compounds, about 17,000 (4.7%) were called active. The shares of active, inactive and inconclusive entries below differ from those in the screen. Rule as the data show it: active = activity change below about -50%; inconclusive = mostly about -30% to -49%; inactive = weaker than that.

Assay: qHTS for Inhibitors of Inflammasome Signaling: IL-1-beta AlphaLISA Primary Screen
Settings: THP-1 LPS/ATP IL-1B secretion, 16 h; at 57.5 µM, stronger effect = lower value
Procedure, shortened: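 THP-1 cells pretreated 1 hr with compounds (up to 57.5 uM final), then stimulated with LPS (250 ng/mL final) plus ATP (1.25 mM final); secreted IL-1B measured by AlphaLISA after 16 hr, decreased signal indicating inhibition.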
% is scaled to controls: 0 for no effect and ±100 for the full control effect.

SMILES | activity change
O=C(Nc1cccnc1)C1Cc2c(-c3ccccc3Oc3ccccc3)ccnc2O1 (centres undefined) | inconclusive: -45.2%
N/C(=N\c1nc(CSc2ccccn2)cc(=O)[nH]1)Nc1ccc(Cl)cc1Cl | inactive: 26.7%
Cc1ccc(CNc2oc(-c3ccco3)nc2S(=O)(=O)c2ccccc2)cc1 | inactive: -9.41%
COc1cc(C(CC(=O)N2CCCC2)c2c(OC)cc(OC)c3c(-c4ccccc4)cc(=O)oc23)cc(OC)c1OC (centres undefined) | inconclusive: -47.6%
CC(C)c1ccc(C2CC(=O)c3cnc(NC(=O)c4ccco4)nc3C2)cc1 (centres undefined) | inactive: 15.3%
c1ccc(-c2ccccc2OCCCN2CCCC2)cc1 | inconclusive: -41%
Cc1ccc(-n2nnnc2SCC(=O)NNC(=O)c2ccco2)c(C)c1 | inactive: 13%
CCC(=O)N1CCN(c2ccc(NC(=O)COc3ccccc3[N+](=O)[O-])cc2)CC1 | inconclusive: -33.8%
CCn1c(SCC(=O)Nc2ccccc2OC)nc2ccccc2c1=O | active: -71.7%
COc1ccc(/C=N/Nc2nc(C)cc(-c3ccccc3)n2)cc1OC | inconclusive: -44.7%
C=CCn1c(N)c(S(=O)(=O)c2cccs2)c2nc3ccccc3nc21 | inconclusive: -31%
COc1ccc2ccc(O)c(CN(C)CC(=O)Nc3ccccc3C(F)(F)F)c2c1 | inactive: -23.2%
CC1(C(=O)Nc2ccccc2)Cc2c(-c3cccc(C(F)(F)F)c3)ccnc2O1 (centres undefined) | inconclusive: -47.1%
COc1ccc(C(CNC(=O)C(=O)Nc2ccc3c(c2)OCO3)N2CCN(C)CC2)cc1 (centres undefined) | inconclusive: -32%
S=c1[nH]nc(SCc2ccccc2)c2[nH]cnc12 | inactive: 26.6%
Cc1[nH]c2ccccc2c1C(=O)CN1CCN(C/C=C/c2ccccc2)CC1 | inconclusive: -33.4%
CCOC(=O)CSc1nc2cc(S(=O)(=O)N3CCOCC3)ccc2n1CC | active: -90.3%
CC(=O)c1ccc(N(C(=O)Cc2c[nH]c3ccccc23)C(C(=O)NC2CCCCC2)c2cccs2)cc1 (centres undefined) | inconclusive: -30.5%
COc1ccc2c(c1)CC(N1CCN(C)CC1)c1cc(OC)ccc1S2 (centres undefined) | active: -93.2%
COc1ccc(-n2cc(CNC3CCN(C)CC3)c(-c3cccc(F)c3)n2)cc1 | active: -62.8%
COc1ccc(C)c2sc(N(CCCN(C)C)C(=O)c3ccc4c(c3)OCCO4)nc12 | inconclusive: -39.4%

SMILES | activity change
C#CCOCCOCCOCCNc1nc(N2CCN(C(=O)CCCCCCCCCCNC(=O)[C@H](CCCCN)n3cc(C[C@@H](C)CC)nn3)CC2)nc(N2CCN(C(=O)CCCCCCCCCCNC(=O)[C@H](CCCCN)n3cc(C[C@@H](C)CC)nn3)CC2)n1 | active: -65.8%
O=C(NOCc1ccccc1)c1ccc(Cl)cc1 | inconclusive: -46.8%
CC(NC1CCN(Cc2ccccc2)CC1)c1ccc(F)cc1 (centres undefined) | inconclusive: -35.3%
CCOc1ccc(C(=O)/C=C/c2cc(OC)c(OC)c(OC)c2)cc1 | active: -94.2%
CCOc1ccc(-n2c(-c3ccc(Cl)cc3)c[n+]3c2SCC3)cc1 | active: -86%
CSCCC(NC(=O)c1cccc([N+](=O)[O-])c1)c1nc2ccccc2[nH]1 (centres undefined) | inactive: -0.222%
O=C(CCCN1C(=O)/C(=C/c2cccs2)SC1=S)NNC(=O)c1cccnc1 | inconclusive: -41.1%
Cc1c(CCOC(=O)c2ccc(Cl)cc2Cl)sc[n+]1CC(=O)c1ccc(Br)cc1 | inconclusive: -37.7%
Cc1cccc(NC(=O)c2cc(=O)c3ccccc3o2)n1 | inactive: -27%
CCCc1[nH]nc2c1C(c1ccc(OC(=O)N3CCOCC3)cc1)C(C#N)=C(N)O2 (centres undefined) | inconclusive: -41.8%
COc1cccc(-c2ccc(NC(=O)C3CCCN(Cc4ccco4)C3)cc2)c1 (centres undefined) | active: -80.2%
COc1cc(NC(=O)CSc2ncnc3sc4c(c23)CCCC4)c(C(=O)O)cc1OC | inactive: 13.5%
OC(COCc1cccs1)CN1CCN(c2cccc(Cl)c2)CC1 (centres undefined) | inconclusive: -44.4%
NC(Cc1ccc(C(F)(F)F)cc1)c1csc(Nc2cc(NCc3ccco3)ncn2)n1 (centres undefined) | inconclusive: -49.7%
O=C(Nc1ccc(C(=O)N2CCOCC2)cc1)Nc1ccc(Cl)cc1Cl | inconclusive: -48.5%
Cc1c(C(=O)NCc2cccs2)oc2ccc(S(=O)(=O)N3CCOCC3)cc12 | inconclusive: -32%
CS(=O)(=O)c1ccc(C(=O)OCc2nnc(-c3ccccc3)o2)cc1[N+](=O)[O-] | active: -69.6%
CCS(=O)(=O)c1nc(S(=O)(=O)c2ccc(C)cc2)c(N2CCCC(C)C2)s1 (centres undefined) | inconclusive: -45.7%
CC(=O)Nc1cccc(NS(=O)(=O)c2ccc3c(c2)CCC(=O)N3)c1 | inactive: -5.31%
COc1ccccc1CNC(=O)Nc1nc(C(N)CCc2ccccc2)cs1 (centres undefined) | inconclusive: -43.8%
FC(F)(F)c1ccc2c(c1)C1C=CCC1C(c1ccncc1)N2 (centres undefined) | inconclusive: -36.9%

SMILES | activity change
Cc1ccc(NC(=O)c2nc(S(=O)(=O)Cc3ccccc3)ncc2Cl)cc1 | active: -103%
Nc1nc(SC2c3cccc4cccc(c34)C2NS(=O)(=O)c2ccccc2)n[nH]1 (centres undefined) | inconclusive: -40.7%
O=C(CCN1C(=O)/C(=C/c2ccccc2F)SC1=S)NCCCN1CCOCC1 | active: -96.6%
O=S1OC(c2ccccc2)c2cc(Cl)ccc21 (centres undefined) | active: -111%
CC(=O)N1N=C(c2ccc(C(C)(C)C)cc2)OC1(C)C | inactive: 0%
CCc1nc2c(OCC(=O)c3ccc(F)cc3)cccn2c1N(C)C(=O)c1cccs1 | inactive: -20.3%
Cc1cc(/C=C2/NC(=O)N(Cc3ccccc3F)C2=O)c(C)n1C(C)C | inconclusive: -32.8%
CCOC(=O)/C(C#N)=C/Nc1ccccc1OC | inconclusive: -39.6%
CC(C)Cc1nc(NCCN2CCOCC2)c(C#N)c2c1COC(C)(C)C2 | inconclusive: -30.8%
O=C1c2cccc3c([N+](=O)[O-])ccc(c23)C(=O)N1c1nccs1 | active: -107%
O=c1c2ccccc2nc(SCc2nnc(-c3ccccc3Br)o2)n1Cc1ccco1 | inconclusive: -34.3%
COc1cc(OC)cc(C(=O)NCC2CCCN(Cc3ccc(SC)cc3)C2)c1 (centres undefined) | inconclusive: -42.5%
Fc1cccc(/C=N/Nc2ccccn2)c1 | active: -72%
CCCNC(=O)c1ccc(N2CCC3(CC2)CC(c2cccc(Br)c2)=NO3)c([N+](=O)[O-])c1 | inconclusive: -31%
CCCN1C(=O)/C(=c2\sc3nc(=O)c(Cc4ccc(C)cc4)nn3c2=O)c2ccccc21 | inconclusive: -34.1%
O=S(=O)(c1ccccc1)c1nnn2c1nc(NC1CCN(Cc3ccccc3)CC1)c1ccccc12 | inconclusive: -37.6%
O=C(Nc1cc(S(=O)(=O)N2CCOCC2)ccc1N1CCCC1)c1ccc2c(c1)S(=O)(=O)c1ccccc1C2=O | inconclusive: -37.9%
N=c1c2c(-c3ccccc3)c(-c3ccccc3)oc2ncn1CCN1CCOCC1 | inconclusive: -34.6%
CC(=O)c1ccc(NC(=O)N2CCc3ccccc3C2)cc1 | inconclusive: -37.3%
COc1ccc(CSCCN)cc1Cl | inconclusive: -42.3%
CC(=O)Nc1cc(N=Cc2ccc(O)cc2O)c(Cl)cc1Cl | active: -102%

SMILES | activity change
CCN1CCN=C1Nc1ccccc1 | inactive: 0.808%
Cc1ccc(NC(=O)c2ccc3c(c2)CCN3S(C)(=O)=O)c(C)c1 | inconclusive: -37.7%
Cc1ccc(C(=O)Nc2ccc(N3CCN(C(=O)c4ccco4)CC3)cc2)c(Cl)c1 | inconclusive: -31.8%
O=C(COC(=O)Cn1cnc2ccccc2c1=O)NCC12CC3CC(CC(C3)C1)C2 | active: -52.9%
COc1ccc(C(=O)N2CCCCC2c2cc(C(=O)Nc3ccc(F)c(Cl)c3)no2)cc1 (centres undefined) | inactive: -4.59%
COc1ccc(N(CC(=O)Nc2c(C)cccc2C)S(=O)(=O)c2ccccc2[N+](=O)[O-])c(OC)c1 | inconclusive: -32%
CCc1ccc(/C=c2\s/c(=C\C(=O)C(C)(C)C)[nH]c2=O)cc1 | inactive: 0%
COc1ccc(-c2csc(N3CCOCC3)n2)cc1OC | inconclusive: -45.3%
CC(Oc1ccccc1Cl)C(=O)Nc1ccc(S(=O)(=O)N2CCN(C)CC2)cc1 (centres undefined) | active: -55.2%
Cc1ccc(C)c(N2CCN(C(=O)C3CCN(S(=O)(=O)c4cccc5nsnc45)CC3)CC2)c1 | inconclusive: -36.9%
COCCNC(=O)/C(C#N)=C/c1c(N2CCN(C)CC2)nc2c(C)cccn2c1=O | inactive: 8.35%
O=C(Nc1ccc(F)cc1)N1CCc2ccccc2C1 | active: -55.2%
CN(C1(C)CCS(=O)(=O)C1)S(=O)(=O)c1ccc2ccccc2c1 (centres undefined) | inconclusive: -34.8%
CCOc1ccc(CCN2C(=S)N([C@@H](CC(C)C)CN3CCC[C@@H]3CN3C(=S)NC[C@@H]3Cc3ccc(O)cc3)C[C@@H]2CC(C)C)cc1 | inconclusive: -45.2%
Cc1ccc(CNC(=O)COc2cccc3c2OC(C)(C)C3)cc1 | inactive: -15.1%
CC(C)NC(=O)CSc1ncccc1-c1nc2ccccc2[nH]1 | inactive: -1.65%
CCCCOC(=O)C(C#N)c1nc2ccccc2nc1N1CCN(Cc2ccc3c(c2)OCO3)CC1 (centres undefined) | inactive: -3.67%
COC(=O)Cn1cc([N+](=O)[O-])nc1C | inactive: -9.62%
CCCCN(C)C(=O)c1nc2ccccn2c1CN1CCC[C@H]1CO | inactive: 12%
O=S(=O)(NCCc1ccccc1)c1ccc(Br)s1 | inconclusive: -36.4%
CCC(=O)Nc1nc(C)c(-c2csc(Nc3ccccn3)n2)s1 | active: -96%
